# Measured values as given in PubChem BioAssay AID1745853 (National Center for Advancing Translational Sciences (NCATS), 2022).
# Where “and” joins values, the source holds several entries; their conditions need not be identical. Identical values can stand only once. The list shows a part of the results. Shown are side measurements of this screen, not its main read-out; they come without a call.
# What was measured:
# Assay in all cases: Primary Screen for Target Class Profiling of Small Molecule Inhibitors of Methyltransferases
# [1] = biological target: Glycine N-methyltransferase (Homo sapiens) (UniProt Q14749); details: purified enzyme, MTase-Glo SAH luminescence; measured here: GNMT inhibition; at 40 µM; stronger effect = lower value
# In short: (§1)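 Each enzyme was reacted with SAM and its substrate, with compounds tested once at 40 uM; SAH formed was read by MTase-Glo luminescence.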
# [2] = biological target: Guanidinoacetate N-methyltransferase (Homo sapiens) (UniProt Q14353); details: purified enzyme, MTase-Glo SAH luminescence; measured here: GAMT inhibition; at 40 µM; stronger effect = lower value
# In short: as §1
# [3] = biological target: Histamine N-methyltransferase (Homo sapiens) (UniProt P50135); details: purified enzyme, MTase-Glo SAH luminescence; measured here: HNMT inhibition; at 40 µM; stronger effect = lower value
# In short: as §1
# [4] = biological target: Nicotinamide N-methyltransferase (Homo sapiens) (UniProt P40261); details: purified enzyme, MTase-Glo SAH luminescence; measured here: NNMT inhibition; at 40 µM; stronger effect = lower value
# In short: as §1
# [5] = biological target: Phenylethanolamine N-methyltransferase (Homo sapiens) (UniProt P11086); details: purified enzyme, MTase-Glo SAH luminescence; measured here: PNMT inhibition; at 40 µM; stronger effect = lower value
# In short: as §1
# % is scaled to controls: 0 for no effect and ±100 for the full control effect.
SMILES,"activity change, negative = inhibition [1]","activity change, negative = inhibition [2]","activity change, negative = inhibition [3]","activity change, negative = inhibition [4]","activity change, negative = inhibition [5]"
COc1cccc(N2C(=O)c3cc4sccc4n3CC2(C)C(=O)NC2CCCCC2)c1 (stereo not given),-3.36%,-0.311%,-2.63%,4%,-2.7%
CC(C)c1ccc2c(c1)c(SC(C)(C)C)c(CC(C)(C)C(=O)O)n2Cc1ccc(Cl)cc1,-26.5%,-1.66%,-32.8%,-36.1%,2.38%
CC(C)Cn1c(=O)c2ccccc2n2c(SCC(=O)Nc3ccc(F)cc3F)nnc12,4.11%,0%,10.4%,4.51%,7%
COc1ccc(NC(=O)N2CCn3cccc3C2C(C)C)cc1OC (stereo not given),6.6%,0.16%,1.52%,2.88%,1.67%
CCOc1ccc(CCNC(=O)c2cc3n(n2)CC(C)(C(=O)NC2CCCCCC2)N(C)C3=O)cc1 (stereo not given),1.31%,-1.49%,-2.7%,-3.43%,-4.29%
C[C@@H]1CN(C(=O)c2cnn(C)c2)CC[C@@]1(O)C1CCOCC1,8.89%,-9.5%,-3.87%,-14.7%,-10%
Cc1ccccc1-n1c([C@H](C)Nc2nc(N)nc3nc[nH]c23)nc2cccc(C)c2c1=O,-4.77%,-2.95%,0.509%,-21.6%,3.1%
COc1cccc(CN2C(=O)c3cc4c(OC)ccc(OC)c4n3CC2(C)C(=O)NC2CCCC2)c1 (stereo not given),6.27%,0.054%,10.5%,8.68%,3.16%
O=C(Cn1nc2nc(Nc3ccc(F)cc3)ccn2c1=O)Nc1ccccc1,7.63%,-0.824%,15.6%,-4.92%,2.2%
COc1cccc(-c2ccc(CN3CCCC(N[S+](=O)([O-])c4c(C)noc4C)C3)cc2)c1 (stereo not given),-3.02%,-1.34%,-6.38%,-2.86%,-7.16%
C=C1CCC2C(C)(C(=O)OC)CCCC2(C)C1CCC1=CCOC1=O (stereo not given),-2%,-6.55%,6.23%,-22.5%,-3.67%
COc1ccc(C(=O)N2CC[C@H](c3nc4ccccc4n3C)C2)cc1OC,-5.22%,-4.25%,-2.85%,-8.07%,5.66%
CC(/C=C/C(=O)NO)=C\[C@@H](C)C(=O)c1ccc(N(C)C)cc1,1.16%,5.55%,8.28%,-6.97%,5.2%
CSc1ccc(N2C(=O)c3ccccc3CC2(C)C(=O)NCc2ccccc2)cc1 (stereo not given),-6.61%,2.67%,-9.24%,-9.69%,-6.83%
CC(C)NC(=O)C[C@@H]1C[C@H]2O[C@H](CNCc3ccccc3C(F)(F)F)[C@@H](O)[C@H]2O1,1.57%,2.48%,2.2%,5.05%,11.4%
O=C(CO)N1CCC(c2[nH]nc(-c3ccc(Cl)cc3)c2-c2ccncn2)CC1,0.739%,5.86%,7.42%,-13.6%,-2.93%
COc1cccc2c1OCC(C(=O)N1CCC(c3noc(C)n3)CC1)C2 (stereo not given),1.1%,0.062%,1.56%,1.09%,2.35%
CC1(C)O[C@]23C[C@H]1C[C@H](OC(=O)c1ccoc1)[C@]2(C)[C@@H](OC(=O)c1ccoc1)CCC3(C)O (stereo not given in full),0%,-0.891%,-2.56%,-13.9%,0.87%
C=C1CCC2C(C)(C(=O)O)CCCC2(C)C1CCC(C)CC(=O)O (stereo not given),-4.18%,-14%,1.72%,-20%,-9.54%
CN(CC(=O)N1CCc2ccccc21)S(=O)(=O)c1ccc2[nH]c3c(c2c1)CCCC3,3.5%,0%,7.38%,2.98%,3.32%

SMILES,"activity change, negative = inhibition [1]","activity change, negative = inhibition [2]","activity change, negative = inhibition [3]","activity change, negative = inhibition [4]","activity change, negative = inhibition [5]"
Cc1cc(Nc2nc(N[C@@H](C)c3ccc(F)cc3)c(C#N)cc2F)n[nH]1,-9.59% and -21.4%,0.15%,-1.88% and -4%,-52% and -38.8%,-7.57% and 6.81%
Cc1cc(-c2cc3c(cn2)N(C)CCN(C)C3)ccn1,-8.46%,-7.71%,-66.9%,-12%,-20.8%
C[C@]1(O)CCN(C(=O)c2ccc3c(c2)OCC(=O)N3)C[C@@H]1O,-5.48%,-6.52%,-7.85%,-8.74%,1.41%
Cc1ccc(C(=O)N(CC2CCN(Cc3ccccc3F)CC2)CC2CCCO2)s1 (stereo not given),-2.33%,-7.33%,-2.43%,-10.9%,-22.5%
COc1ccccc1CNS(=O)(=O)c1cc2c(cc1C)n(C)c(=O)n2C,-5.17%,3.47%,-8.41%,-10.9%,-7.99%
COc1ccccc1CN1C(=O)c2cc(-c3ccco3)nn2CC1(C)C(=O)NC1CCCCC1 (stereo not given),-11.2%,-10.8%,-0.546%,-10.4%,-6.08%
CCOC(=O)c1cc2n(n1)CC(C)(C(=O)NCCOC)N(c1ccc(C)c(C)c1)C2=O (stereo not given),6.8%,0.281%,8.06%,7.31%,4.76%
COC(=O)c1cc2n(n1)CC(C)(C(=O)NC1CCC(C)CC1)N(c1ccc(F)cc1C)C2=O (stereo not given),2.07%,3.51%,4.98%,3.14%,-0.277%
COc1cccc(CN2CC(=O)N(Cc3ccc(Cl)cc3)c3ccccc3S2(=O)=O)c1,14.9%,3.81%,12.8%,3.1%,9.58%
CC1(C)C[C@@H]2[C@H](C1)[C@@]1(C)C[C@]13C(O)OC[C@]3(O)[C@H]2O (stereo not given in full),-4.37%,-8.68%,3.56%,-20.2%,-1.36%
COc1cc(N2CCC(N3CCN(C)CC3)CC2)ccc1Nc1ncnc(Nc2ccccc2S(=O)(=O)C(C)C)n1,3.56%,8.39%,-23.6%,-9.25%,7.62%
COc1cccc(CN2C(=O)c3cc(-c4cccs4)nn3CC2(C)C(=O)NC2CCCCCC2)c1 (stereo not given),5.8%,0.398%,9.13%,0.562%,2.63%
O=C(CCC1CCCN(Cc2cc3ccccc3s2)C1)Nc1ccccc1F (stereo not given),-6.53%,1.27%,-4.39%,0.865%,-4.24%
COc1cc(OC)c(NC(=O)N2CCn3cccc3C2C)cc1Cl (stereo not given),-8.46%,-0.141%,-8.12%,-12.7%,-8.66%
CCN(CCO)CCCC(C)Nc1ccnc2cc(Cl)ccc12 (stereo not given),7.06%,2.44%,-37%,-10.6%,-1.78%
NC(=O)C1CCN(c2nc3c(-c4cccc(F)c4)nnn3c3ccc(Cl)cc23)CC1,2.23%,0%,9.23%,14.6%,0.358%
Cc1nc(Nc2ncc(C(=O)Nc3c(C)cccc3Cl)s2)cc(N2CCN(CCO)CC2)n1,-56.3%,-19.4%,-65.8%,-31.8%,-47.5%
CCOC(=O)c1cc2n(n1)CC(C)(C(=O)NCc1ccccc1OC)N(CCc1ccco1)C2=O (stereo not given),2.48%,0.256%,8.69%,3.24%,2.37%
CCOC(=O)c1cc2n(n1)CC(C)(C(=O)NCc1ccc(C)cc1)N(c1cccc(CC)c1)C2=O (stereo not given),2.37%,4.17%,7.26%,-3.71%,0.372%
